Measured values reported in article PMC13080237, “Functional divergence of protein kinase A regulatory subunit Iβ variants: the importance of N3A motifs in PKA regulation” (The Febs Journal, 2025).

Molecular target: FSS-Cα (human PKA catalytic subunit α with N-terminal FSS-tag) (human)
Experiment: SPR; Biacore T200, multicycle; FSS-Cα captured through its N-terminal FSS-tag on Strep-Tactin XT on a CM5 chip; RIβ variants as analytes, 33 nM to 0.14 nM in 3-fold dilutions, 30 uL/min, 25 °C; 10 mM HEPES pH 7.4, 150 mM NaCl, 0.05% P20, 10 mM MgCl2, 1 mM ATP; no cAMP; 1:1 Langmuir global fit
Details: both partners purified

B1: His-RIβ R268 (human PKA regulatory subunit Iβ, R268 variant) (natural protein)
chain: not shown
Question: B1 was tested. Which Kd did it give?
Answer: The Kd was 0.16 nM.

Question: What about the koff of the same binder?
Answer: Its koff is 0.00036 s⁻¹.

Question: What about the kon of the same binder?
Answer: The kon was 2.2e+06 M⁻¹ s⁻¹.
